The text below walks through data of publication PMC6919601, “Identification of Plasmodium dipeptidyl aminopeptidase allosteric inhibitors by high throughput screening” (PLoS ONE, 2019).

Structures are written as SMILES. The campaign covered roughly 110,000 compounds. About 230 (0.21%) showed an effect of 50% or more. The list shows a part of the results.
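Also: 30 min substrate incubation versus DMSO and 10 µM JCP410 controls.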

Chain of DPAP1 (Q8IIJ9 whole entry, looked up): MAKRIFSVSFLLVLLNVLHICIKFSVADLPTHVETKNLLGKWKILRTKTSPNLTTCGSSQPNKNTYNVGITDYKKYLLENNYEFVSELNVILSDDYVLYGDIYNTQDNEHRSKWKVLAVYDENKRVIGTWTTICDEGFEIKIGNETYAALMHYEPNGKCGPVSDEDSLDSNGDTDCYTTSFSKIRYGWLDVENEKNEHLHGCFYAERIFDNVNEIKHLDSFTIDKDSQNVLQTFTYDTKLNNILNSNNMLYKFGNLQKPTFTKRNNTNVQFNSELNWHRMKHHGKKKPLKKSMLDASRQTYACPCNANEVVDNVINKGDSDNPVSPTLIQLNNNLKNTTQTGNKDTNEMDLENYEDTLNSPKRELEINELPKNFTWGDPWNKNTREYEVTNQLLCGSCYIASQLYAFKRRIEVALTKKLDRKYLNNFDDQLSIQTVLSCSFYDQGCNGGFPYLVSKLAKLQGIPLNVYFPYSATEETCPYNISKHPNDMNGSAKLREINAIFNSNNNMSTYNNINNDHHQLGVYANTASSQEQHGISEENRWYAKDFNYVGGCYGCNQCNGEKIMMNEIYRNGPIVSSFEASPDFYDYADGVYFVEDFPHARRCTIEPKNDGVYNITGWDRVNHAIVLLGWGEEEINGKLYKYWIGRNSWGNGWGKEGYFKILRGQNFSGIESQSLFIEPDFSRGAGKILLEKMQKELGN

The test addresses DPAP1 (Plasmodium falciparum, UniProt Q8IIJ9). Put plainly: primary screen, percent inhibition; read by cleavage of a fluorogenic dipeptide substrate; higher = more effect of the substance. Further details: species or system P. falciparum D10 trophozoite lysates; single well.
For `COc1ccc(Cl)cc1S(=O)(=O)N1CCC(C(N)=O)(N2CCCCC2)CC1`, the “% Inhibition @ 10 uM” value was -5.33%.
For `O=C(NCc1ccccc1)NC1c2ccccc2CSc2ccccc21` (centres unmarked), the “% Inhibition @ 10 uM” value is reported as 1.39%.
The figure for `COc1ccc(CCNC(=O)Cc2c(C)c3c(O)cc(C)cc3oc2=O)cc1` is 0.895%.
The figure for `Cc1ccccc1CNc1nc2nc(C)c(C)c(O)n2n1` is 1%; for `O=C(Cc1noc2ccccc12)NCc1ccccc1` it is -7.32%; for `CCOc1ccccc1N1CCN(Cc2ccco2)CC1` it is -4.61%.
On to `C=CCc1ccc(OCc2ccc(C(=O)O)o2)c(OC)c1`, for which the “% Inhibition @ 10 uM” value is listed as -5.24%.
On to `CC1=CCC2CC1C(c1ccc(N(C)C)cc1)OC2(C)C` (centres unmarked), for which the “% Inhibition @ 10 uM” value stood at 4.6%.
The figure for `Cc1ccccc1OCC(=O)Nc1ccc(S(=O)(=O)N2CCCCC2)cc1` is 2.44%; for `CC(C)c1ccc(Nc2nc(Cl)nc(N3CCCCC3)n2)cc1` it is -5.44%; for `CCOc1cccc(NC(=O)c2cccc(Cl)c2)c1` it is -0.116%.
With `CC12CN3CC(c4ccccc4)(CN(C1)C3c1ccccc1O)C2=O` (centres unmarked), the “% Inhibition @ 10 uM” value is -2.91%.
The figure for `Cc1cc(O)nc(SCc2nc3ccccc3c(=O)n2-c2ccccc2C)n1` is 2.27%.
The figure for `CS(=O)(=O)C1=NSC2=NC(=O)/C(=C\c3ccc(OCc4ccccc4)c(Cl)c3)C(=N)N21` is 3.28%; for `O=C(O)c1ccc(N2C(=O)C3C4C=CC(O4)C3C2=O)cc1` (centres unmarked) it is -3.09%; for `COc1ccc(CCNS(=O)(=O)c2ccc3ccccc3c2)cc1OC` it is 0.146%.
The figure for `O=C(COc1ccccc1)N1CCN(c2ccccc2F)CC1` is -0.69%; for `O=S1(=O)CCC(NC(=S)NC2CCS(=O)(=O)C2)C1` (centres unmarked) it is -11.3%.
Consider `CC(C)CC(C(=O)O)N1C(=O)C2C3CC(C2C1=O)C1C(c2ccccc2)c2sc(O)nc2SC31` (centres unmarked), for which the “% Inhibition @ 10 uM” value was -5.36%.
With `COc1ccc(S(=O)(=O)N(CC(=O)N2CCOCC2)C2CCCCC2)cc1OC`, the “% Inhibition @ 10 uM” value came to 1.25%.
With `Cc1c2c(cc3c1oc(=O)c1ccccc13)CN(Cc1ccc3c(c1)OCO3)CO2`, the “% Inhibition @ 10 uM” value is recorded as 2.54%.
The figure for `Cc1nn(CC(O)Cn2c3c(c4ccccc42)CCN(C)C3=O)c(C)c1Br` (centres unmarked) is 5.07%.
The figure for `Cn1nc(C(=O)N(Cc2ccco2)CC2CCCO2)c2c1-c1ccccc1SC2` (centres unmarked) is -1.72%.
As to `CCOC(=O)c1cnc2c(C)ccc(Cl)c2c1O`, the “% Inhibition @ 10 uM” value is 0.189%.
The figure for `COc1ccc(-c2cc(C(=O)NCc3ccccn3)c3ccccc3n2)cc1OC` is 3.72%; for `COc1cc2ccccc2cc1C(=O)Nc1ccc(Cl)cn1` it is 0.983%; for `CCc1ccc(/C=c2/sc3nnc(-c4ccccc4)n3c2=O)cc1` it is -3.74%.
The figure for `Cc1nc(-n2cccc2)sc1C(=O)NCCCN1CCOCC1` is 1.03%.
The figure for `CN1CCC(N(C)Cc2cc(F)ccc2F)CC1` is -6%; for `CC(C)c1ccc(C(=O)N2CCN(c3ccc(F)cc3)CC2)cc1` it is -3.26%.
On to `O=C(CCc1nnc2n(Cc3ccccc3)c(=O)c3ccccc3n12)N1CCC(N2CCCCC2)CC1`, for which the “% Inhibition @ 10 uM” value is given as 4.16%.
For `CCOC(=O)c1cc2c3c(c1)C1C=CCC1C(c1ccccc1)N3CC1CC=CC21` (centres unmarked), the “% Inhibition @ 10 uM” value is listed as 16.7%.
The figure for `Cc1ccc(C2CC(=O)N=C(NC(=O)c3ccc(C(C)(C)C)cc3)N2)cc1` (centres unmarked) is -1.96%; for `CCCCn1c(-c2ccccc2)cn2c3c(=O)n(C)c(=O)n(C)c3nc12` it is 5.38%.
The figure for `O=C(O)c1c(CNCc2cccc(Cl)c2)c2ccccc2n1Cc1cccc(F)c1` is -0.517%; for `O=C(Cc1cccs1)N1CCC(Cc2ccccc2)CC1` it is -4.16%; for `COc1ccc(-n2nnnc2C2CCN(S(=O)(=O)c3ccccc3C(F)(F)F)CC2)cc1` it is 3.27%.
Take `CCOC(=O)N1CCC(NC(=O)c2cc3cc4ccc(OC)cc4nc3s2)CC1`: the “% Inhibition @ 10 uM” value is 0.675%.
The figure for `O=C(O)CNS(=O)(=O)/C=C/c1ccccc1` is -6.82%; for `O=S(=O)(Nc1ccccc1O)c1ccc2ccccc2c1` it is -0.424%; for `CCC1(O)CC(c2ccccc2)=NN1C(=O)c1ccccc1F` (centres unmarked) it is 8.19%.
The figure for `COc1ccc(/C=C2\CCC(C3CCCC3)C2=O)cc1Cn1cccn1` (centres unmarked) is 8.9%; for `COc1ccccc1NC(=O)Cc1ccc(F)cc1F` it is 0.273%.
With `O=C(c1ccc(F)cc1)n1nc(-c2ccccc2)nc1NCc1ccccc1`, the “% Inhibition @ 10 uM” value came to 2.31%.
The figure for `COC(=O)c1cc(O)c2c(C)nc(C(Cl)(Cl)Cl)nc2n1` is -3.64%.
The figure for `COc1ccc(S(=O)(=O)NCc2ccccn2)cc1C` is 3.49%.
The figure for `Cc1cc(Br)c(NC(=O)C2CCCN2C(=O)OC(C)(C)C)cc1C` (centres unmarked) is -6.81%.
As to `O=C(c1cccc(Cl)c1)n1nc(-c2cccnc2)nc1NCc1cccs1`, the “% Inhibition @ 10 uM” value amounted to 3.81%.
The figure for `COc1ccc(S(=O)(=O)Nc2ccc(O)c(C(=O)O)c2)cc1` is 2.67%; for `O=C(CSc1nc2ccccc2c(=O)n1C1CCCCC1)N1CCCCC1` it is 6.1%.
